Laboratory results published in PubChem BioAssay AID1030 (National Center for Advancing Translational Sciences (NCATS), 2008).
Screen size: about 220,000 compounds; about 16,000 (7.3%) were called active. The inconclusive results got no clear call from the source; some entries with a clear call stand among them for comparison. Calls come from the whole dose curve; as a rule, active = well fitted inhibition curve with a large enough effect (not every such curve was filed as active); inconclusive = small, poorly fitted or top-dose-only effect, or another doubt; inactive = no such curve, though single readings can be large or run the other way. A potency beside an inconclusive call is a rough fit, not a confirmed value.

Each compound was assayed against Aldehyde dehydrogenase 1A1 (Homo sapiens) (UniProt P00352) (assay: qHTS Assay for Inhibitors of Aldehyde Dehydrogenase 1 (ALDH1A1)). Details: Purified ALDH1A1, NADH fluorescence, propionaldehyde substrate; series mostly up to 75.3 µM.
Potency is the fitted concentration of half-maximal effect; tags give direction and shape of the fitted curve.

UniProt P00352, sequence (P00352 whole entry, looked up): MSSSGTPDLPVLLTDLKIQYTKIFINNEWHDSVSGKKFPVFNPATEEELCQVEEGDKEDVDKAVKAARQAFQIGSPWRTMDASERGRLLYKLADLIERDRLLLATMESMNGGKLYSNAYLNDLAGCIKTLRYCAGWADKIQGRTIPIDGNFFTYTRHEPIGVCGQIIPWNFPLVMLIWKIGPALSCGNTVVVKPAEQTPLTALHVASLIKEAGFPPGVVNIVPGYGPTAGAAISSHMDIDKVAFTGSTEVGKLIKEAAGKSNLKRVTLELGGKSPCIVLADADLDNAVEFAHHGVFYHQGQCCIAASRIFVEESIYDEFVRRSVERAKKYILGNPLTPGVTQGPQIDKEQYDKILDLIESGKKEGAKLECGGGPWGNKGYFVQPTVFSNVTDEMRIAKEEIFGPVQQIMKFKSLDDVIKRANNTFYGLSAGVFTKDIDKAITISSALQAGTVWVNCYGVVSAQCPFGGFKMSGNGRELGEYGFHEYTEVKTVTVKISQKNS

Potency, inactive:
O=C1c2cccc3cccc(c23)C(=O)N1c1nccs1
COC(=O)CC1C(C)(C)C(OC(C)=O)C2[C@H](OC(C)=O)[C@]34O[C@]2(O)[C@]1(C)C3CC[C@]1(C)C4=CC(=O)OC1c1ccoc1 (stereo partly specified)
Cc1nc2ccccc2c2c1C(=O)N(C1CCCCCCC1)C2=O
C/C(=N/OC(=O)c1ccccc1)c1oc(C)nc1C
COc1ccc(S(=O)(=O)N2CCC(C(=O)N3CCCCC3)CC2)cc1Cl
O=C1NC2(CCCCC2)NN1c1ccccc1
NC(=O)SCC(=O)Nc1ccccc1C(=O)O
Cc1ccc(Oc2c(CO)c(-c3ccccc3)nn2C)cc1
Cc1cccc(NC(=S)N2CCC(C(N)=O)(N3CCCCC3)CC2)c1C
O=C(OCc1nc2ccc(Cl)cc2n1CCO)c1ccccc1
CC1(C)CC(=O)C2=C(C1)OC1=C(C(=O)CC(C)(C)C1)C2c1cc([N+](=O)[O-])cc([N+](=O)[O-])c1O
CNC(=S)N(CCc1c(C)[nH]c2ccc(OC)cc12)Cc1cc(OC)c(OC)c(OC)c1
COc1cc(C2C(C(=O)c3ccco3)=C(O)C(=O)N2CCc2ccccc2)ccc1O (stereo unspecified)
CCOC(=O)c1c(NC(=O)CSc2nnc(C)c(=O)[nH]2)sc2c1CCCC2
Cc1cc(C)n2nc(SCC(=O)Nc3c(C)n(C)n(-c4ccccc4)c3=O)nc2n1
C=CCNC(=O)C1CC1(c1ccccc1)c1ccccc1 (stereo unspecified)
CN1CCN(C(=O)N2c3ccccc3CCc3ccccc32)CC1
Nc1ccc(O)c2c(=O)cc(-c3ccccc3Cl)oc12
Cc1cc(C)cc(-n2c(C)cc(C(=S)N3CCOCC3)c2C)c1
COc1ccc(C/C(N)=N/O)cc1
COC(=O)[C@@]1(Cc2ccc(OC)cc2)[C@H]2c3cc(C(=O)N4CCCC4)n(CCCNc4ncc(C(F)(F)F)cc4Cl)c3C[C@H]2CN1C(=O)c1ccccc1
O=C1CC(C(=O)Nc2ccccc2)S/C(=N\NC(=O)c2ccccc2Cl)N1 (stereo unspecified)
S=C(NCC1CCCO1)NC1CCCC1 (stereo unspecified)
COc1ncc2nc(-c3cc(F)cc(F)c3)c(=O)n(C[C@H]3CCCO3)c2n1

Potency, inconclusive:
COc1ccc2[nH]c(=O)c(CN(C(=O)C3CCCO3)c3cccc(C)c3)cc2c1 (stereo unspecified) 39.8 µM [inhibitor, single point]
Cc1ccc(-n2nc(C)c3c(C)c(CCC(=O)NCc4ccccc4)c(C)nc32)cc1 28.2 µM [inhibitor, single point]
O=C(N/N=C/c1cccc([N+](=O)[O-])c1)c1ccc(CN2CCOCC2)cc1 39.8 µM [inhibitor, single point]
CCNC(=O)C(=O)NCC1OCCCN1S(=O)(=O)c1cccs1 (stereo unspecified) 28.2 µM [inhibitor, single point]
Cc1ccc(S(=O)(=O)Nn2c(C)ccc2C)cc1 35.5 µM [inhibitor, single point]
O=C(NCCCc1ccccc1)Nc1cccc(Cl)c1 39.8 µM [inhibitor, single point]
CCC(=O)Nc1ccc(C(=O)CN2CCC(C)CC2)cc1 25.1 µM [inhibitor, single point]
Cc1ccc(S(=O)(=O)CNC(=S)c2cccc(Cl)c2)cc1 39.8 µM [inhibitor, single point]
Cc1cc(C(C)(C)C)cc(S(=O)(=O)NCCO)c1C 28.2 µM [inhibitor, single point]
CCC(C)NC(=O)c1ccc(CSCc2cccc(F)c2)o1 (stereo unspecified) 25.1 µM [inhibitor, single point]
CN1CCN(c2ccc(Cl)cc2NC(=O)C2COc3ccccc3O2)CC1 (stereo unspecified) 39.8 µM [inhibitor, partial curve]
O=C(NCCO)c1cc2ccccc2cc1O 17.8 µM [inhibitor, single point]
CCOC(=O)c1ccc(N=CC2=C(O)CC(C)(C)CC2=O)cc1 22.4 µM [inhibitor, single point]
CCc1cccc(NC(=O)CCNS(=O)(=O)c2cccc3nonc23)c1 37.7 µM [inhibitor, single point]
CCCCc1cc(=O)oc2cc(C)cc(OCC(=O)O)c12 28.2 µM [inhibitor, partial curve]
Cc1ccc(C(=O)Nc2cccc3ncccc23)cc1[N+](=O)[O-] 39.8 µM [inhibitor, single point]
Cc1cc(C)c(S(=O)(=O)Nc2ccc3c4c(cccc24)CC3)c(C)c1 39.8 µM [inhibitor, single point]
CCC1=NN2C(=N)/C(=C\c3cccn3-c3ccc(OC)cc3)C(=O)N=C2S1 39.8 µM [inhibitor, single point]
O=C(NC(=S)Nc1ccc(N2CCOCC2)cc1)c1cncc(Br)c1 39.8 µM [inhibitor, single point]
O=C1CCCC2=C1C(c1ccccc1)C1C(=O)c3ccccc3C1=N2 (stereo unspecified) 0.0355 µM [inhibitor, full curve, poor fit]
COc1ccc(-c2ccc(C(=O)O)o2)c([N+](=O)[O-])c1 39.8 µM [inhibitor, single point]
CC(C)n1cnc2cc(NCc3nc4ccccc4n3C)ccc21 37.7 µM [inhibitor, single point]
O=C1CCCc2nn(-c3ccccc3)c(-c3ccncc3)c21 15.8 µM [inhibitor, partial curve]
COc1ccc2[nH]cc(CCNc3nc(-c4cccnc4)nc4ccccc34)c2c1 39.8 µM [inhibitor, single point]
CC(=O)Nc1cc2ccc(OC(C)=O)cc2oc1=O 28.2 µM [inhibitor, partial curve]
COc1ccc(C)cc1NS(=O)(=O)c1cn(C)nc1C 35.5 µM [inhibitor, single point]
CCOC(=O)N1CCN(CC(=O)Nc2ccc([N+](=O)[O-])cc2C(=O)Nc2ccccc2F)CC1 25.1 µM [inhibitor, single point]
COc1ccc(-c2cc(C)nc3nc(N)nn23)cc1 25.1 µM [inhibitor, partial curve]
CC(=O)c1cnc(Nc2nc(C)c3ccc(C)cc3n2)nc1C 22.4 µM [inhibitor, single point]
COCCNC(=O)CCCn1c(=O)c2cc(OC)c(OC)cc2n(CC(=O)c2ccccc2)c1=O 14.1 µM [inhibitor, partial curve]
CCNc1nc(NCC)n2c(SCC(=O)c3ccccc3Cl)nnc2n1 0.794 µM [inhibitor, full curve]
N#Cc1cccc(NC(=O)N2CC[C@@]3(CCCN(C(=O)c4cnccn4)C3)C2)c1 39.8 µM [inhibitor, single point]
Cc1cc(=O)n2c3c(sc2n1)C(=O)N(Cc1ccccc1)C3=O 28.2 µM [inhibitor, single point]
C1=C(c2ccccc2)CCN(c2ncnc3nc[nH]c23)C1 31.6 µM [inhibitor, single point]
NC(=O)c1oc2ccc(Cl)cc2c1N 31.6 µM [inhibitor, partial curve]
COc1cccc(NC(=O)C(=S)NC2CCCCC2)c1 7.51 µM [inhibitor, full curve, poor fit]
CC(O)C(NS(=O)(=O)c1ccc(Cl)cc1)C(=O)OCC(=O)N1CCN(c2ccccc2)CC1 (stereo unspecified) 39.8 µM [inhibitor, single point]
O=C(NCC(=O)N(Cc1ccccc1)C(C(=O)NC1CCCC1)c1ccncc1)c1ccco1 (stereo unspecified) 6.31 µM [inhibitor, single point]

Potency, active:
CCOC(=O)/C=C1\NC(C)(C)Cc2cc(OC)c(O)cc21 11.2 µM
COc1ccc(C2C(C#N)=C(SC)NC3=C2C(=O)CC(C)(C)C3)cc1 (stereo unspecified) 14.1 µM
COc1ccc(N2C(=O)CC(Sc3nc4ccccc4s3)C2=O)cc1 (stereo unspecified) 7.94 µM
O=C(c1cccc(F)c1)N1CCC[C@@]2(CCN(c3ccccc3)C2)C1 1.12 µM
Cn1c(=O)[nH]c(=O)c2c1nc(N1CCCCCC1)n2CCCSc1nnnn1-c1ccccc1 2.51 µM
CCc1ccc2c(c1)C(=O)C(=O)N2CC(=O)Nc1ccc(NC(=O)c2ccccn2)cc1 0.224 µM
Cc1ccc2nc(NC(=O)CSc3nc4c(c(=O)n3C)SC(C)C4)sc2c1 (stereo unspecified) 14.1 µM
O=C(CSc1nc2ccc(Cl)cc2[nH]1)c1ccc2c(c1)OCO2 17.8 µM
Cc1ccsc1/C=C1\SC(N2CCOCC2)=NC1=O 14.1 µM
COc1ccc(N(CC(=O)Nc2ccc3c(c2)OCCO3)S(=O)(=O)c2cccnc2)cc1 14.1 µM
CCOc1cc([N+](=O)[O-])cc(/C=C2/NC(=O)N(Cc3ccccc3F)C2=O)c1O 2.24 µM
O=S(=O)(NCC(c1cccnc1)N1CCOCC1)c1ccccc1 (stereo unspecified) 25.1 µM
CCCOc1cc(C)nc(-c2ccccc2O)n1 10 µM
Fc1ccc(CN2CCCCCCC2)cc1F 17.8 µM
